T1: recombinant human IL4 (human, UniProt P05112 25-153)
T1 construct: also called Antigen1
T1 sequence (looked up): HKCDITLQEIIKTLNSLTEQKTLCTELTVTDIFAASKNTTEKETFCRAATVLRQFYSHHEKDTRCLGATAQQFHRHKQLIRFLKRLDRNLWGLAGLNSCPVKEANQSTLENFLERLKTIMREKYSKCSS

B1: CODV-Ig LC4:HC6 (IL4 VL-(Gly)-IL13 VL-(Gly2)-CL1 / IL13 VH-(Gly4)-IL4 VH-(Gly4)-CH1-Fc) (bispecific antibody, human IgG1, kappa)
heavy: EVQLKESGPGLVAPGGSLSITCTVSGFSLTDSSINWVRQPPGKGLEWLGMIWGDGRIDYADALKSRLSISKDSSKSQVFLEMTSLRTDDTATYYCARDGYFPYAMDFWGQGTSVTVSSGGGGQVQLQQSGPELVKPGASVKISCKASGYSFTSYWIHWIKQRPGQGLEWIGMIDPSDGETRLNQRFQGRATLTVDESTSTAYMQLRSPTSEDSAVYYCTRLKEYGNYDSFYFDVWGAGTLVTVSSGGGG[letters of human IgG1 constant region not shown]
light: DIQMTQSPASLSVSVGDTITLTCHASQNIDVWLSWFQQKPGNIPKLLIYKASNLHTGVPSRFSGSGSGTGFTLTISSLQPEDIATYYCQQAHSYPFTFGGGTKLEIKGDIVLTQSPASLAVSLGQRATISCRASESVDSYGQSYMHWYQQKAGQPPKLLIYLASNLESGVPARFSGSGSRTDFTLTIDPVQAEDAATYYCQQNAEDSRTFGGGTKLEIKGGRTVAAPSVFIFPPSDEQLKSGTASVVCLLNNFYPREAKVQWKVDNALQSGNSQESVTEQDSKDSTYSLSSTLTLSKADYEKHKVYACEVTHQGLSSPVTKSFNRGEC
notes: IgG1 format; also called Batch ID 123
B2: CODV-Ig Batch ID 116 (IL4 × IL13 on LC; L1=1, L2=2, L3=1, L4=4) (bispecific antibody)
chain 1: EVQLKESGPGLVAPGGSLSITCTVSGFSLTDSSINWVRQPPGKGLEWLGMIWGDGRIDYADALKSRLSISKDSSKSQVFLEMTSLRTDDTATYYCARDGYFPYAMDFWGQGTSVTVSSGQVQLQQSGPELVKPGASVKISCKASGYSFTSYWIHWIKQRPGQGLEWIGMIDPSDGETRLNQRFQGRATLTVDESTSTAYMQLRSPTSEDSAVYYCTRLKEYGNYDSFYFDVWGAGTLVTVSSGGGG[letters of human IgG1 constant region not shown]
chain 2: B1 light
B3: CODV-Ig Batch ID 120 (IL4 × IL13 on LC; L1=1, L2=2, L3=2, L4=2) (bispecific antibody)
chain 1: EVQLKESGPGLVAPGGSLSITCTVSGFSLTDSSINWVRQPPGKGLEWLGMIWGDGRIDYADALKSRLSISKDSSKSQVFLEMTSLRTDDTATYYCARDGYFPYAMDFWGQGTSVTVSSGGQVQLQQSGPELVKPGASVKISCKASGYSFTSYWIHWIKQRPGQGLEWIGMIDPSDGETRLNQRFQGRATLTVDESTSTAYMQLRSPTSEDSAVYYCTRLKEYGNYDSFYFDVWGAGTLVTVSSGG[letters of human IgG1 constant region not shown]
chain 2: B1 light
B4: CODV-Ig LC4:HC4 (IL4 VL-(Gly)-IL13 VL-(Gly2)-CL1 / IL13 VH-(Gly2)-IL4 VH-(Gly4)-CH1-Fc) (bispecific antibody, human IgG1, kappa)
heavy: EVQLKESGPGLVAPGGSLSITCTVSGFSLTDSSINWVRQPPGKGLEWLGMIWGDGRIDYADALKSRLSISKDSSKSQVFLEMTSLRTDDTATYYCARDGYFPYAMDFWGQGTSVTVSSGGQVQLQQSGPELVKPGASVKISCKASGYSFTSYWIHWIKQRPGQGLEWIGMIDPSDGETRLNQRFQGRATLTVDESTSTAYMQLRSPTSEDSAVYYCTRLKEYGNYDSFYFDVWGAGTLVTVSSGGGG[letters of human IgG1 constant region not shown]
light: B1 light
notes: IgG1 format; also called HC4:LC4; Batch ID 121
B5: CODV-Ig Batch ID 131 (IL4 × IL13 on LC; L1=2, L2=2, L3=2, L4=4) (bispecific antibody)
chain 1: B4 heavy
chain 2: DIQMTQSPASLSVSVGDTITLTCHASQNIDVWLSWFQQKPGNIPKLLIYKASNLHTGVPSRFSGSGSGTGFTLTISSLQPEDIATYYCQQAHSYPFTFGGGTKLEIKGGDIVLTQSPASLAVSLGQRATISCRASESVDSYGQSYMHWYQQKAGQPPKLLIYLASNLESGVPARFSGSGSRTDFTLTIDPVQAEDAATYYCQQNAEDSRTFGGGTKLEIKGGRTVAAPSVFIFPPSDEQLKSGTASVVCLLNNFYPREAKVQWKVDNALQSGNSQESVTEQDSKDSTYSLSSTLTLSKADYEKHKVYACEVTHQGLSSPVTKSFNRGEC
B6: CODH-Ig anti-IL13 VH-(G4S)-anti-IL4 VH-CH1-Fc / anti-IL4 VL-(G4S)-anti-IL13 VL-CL (bispecific antibody, human IgG1, kappa)
heavy: EVQLKESGPGLVAPGGSLSITCTVSGFSLTDSSINWVRQPPGKGLEWLGMIWGDGRIDYADALKSRLSISKDSSKSQVFLEMTSLRTDDTATYYCARDGYFPYAMDFWGQGTSVTVSSGGGGSQVQLQQSGPELVKPGASVKISCKASGYSFTSYWIHWIKQRPGQGLEWIGMIDPSDGETRLNQRFQGRATLTVDESTSTAYMQLRSPTSEDSAVYYCTRLKEYGNYDSFYFDVWGAGTLVTVSS[letters of human IgG1 constant region not shown]
light: DIQMTQSPASLSVSVGDTITLTCHASQNIDVWLSWFQQKPGNIPKLLIYKASNLHTGVPSRFSGSGSGTGFTLTISSLQPEDIATYYCQQAHSYPFTFGGGTKLEIKGGGGSDIVLTQSPASLAVSLGQRATISCRASESVDSYGQSYMHWYQQKAGQPPKLLIYLASNLESGVPARFSGSGSRTDFTLTIDPVQAEDAATYYCQQNAEDSRTFGGGTKLEIKRTVAAPSVFIFPPSDEQLKSGTASVVCLLNNFYPREAKVQWKVDNALQSGNSQESVTEQDSKDSTYSLSSTLTLSKADYEKHKVYACEVTHQGLSSPVTKSFNRGEC
notes: also called IL13(G4S)IL4CH1-Fc + IL4(G4S)IL13CL
B7: CODH-Ig anti-IL13 VH-(G4S)-anti-IL4 VH-CH1-Fc / anti-IL4 VL-(G4S)2-anti-IL13 VL-CL (bispecific antibody, human IgG1, kappa)
heavy: B6 heavy
light: DIQMTQSPASLSVSVGDTITLTCHASQNIDVWLSWFQQKPGNIPKLLIYKASNLHTGVPSRFSGSGSGTGFTLTISSLQPEDIATYYCQQAHSYPFTFGGGTKLEIKGGGGSGGGGSDIVLTQSPASLAVSLGQRATISCRASESVDSYGQSYMHWYQQKAGQPPKLLIYLASNLESGVPARFSGSGSRTDFTLTIDPVQAEDAATYYCQQNAEDSRTFGGGTKLEIKRTVAAPSVFIFPPSDEQLKSGTASVVCLLNNFYPREAKVQWKVDNALQSGNSQESVTEQDSKDSTYSLSSTLTLSKADYEKHKVYACEVTHQGLSSPVTKSFNRGEC
notes: also called IL13(G4S)IL4CH1-Fc + IL4(G4S2)IL13CL
B8: CODH-Ig anti-IL13 VH-(G4S)2-anti-IL4 VH-CH1-Fc / anti-IL4 VL-(G4S)-anti-IL13 VL-CL (bispecific antibody, human IgG1, kappa)
heavy: EVQLKESGPGLVAPGGSLSITCTVSGFSLTDSSINWVRQPPGKGLEWLGMIWGDGRIDYADALKSRLSISKDSSKSQVFLEMTSLRTDDTATYYCARDGYFPYAMDFWGQGTSVTVSSGGGGSGGGGSQVQLQQSGPELVKPGASVKISCKASGYSFTSYWIHWIKQRPGQGLEWIGMIDPSDGETRLNQRFQGRATLTVDESTSTAYMQLRSPTSEDSAVYYCTRLKEYGNYDSFYFDVWGAGTLVTVSS[letters of human IgG1 constant region not shown]
light: B6 light
notes: also called IL13(G4S2)IL4CH1-Fc + IL4(G4S)IL13CL
B9: CODH-Ig anti-IL13 VH-(G4S)2-anti-IL4 VH-CH1-Fc / anti-IL4 VL-(G4S)2-anti-IL13 VL-CL (bispecific antibody, human IgG1, kappa)
heavy: B8 heavy
light: B7 light
notes: also called IL13(G4S2)IL4CH1-Fc + IL4(G4S2)IL13CL

Key:
[1] = target: T1, recombinant human IL4; experiment: SPR, Biacore 3000; CODV-Ig captured by anti-human Fc, antigen as analyte
[2] = target: T1, recombinant human IL4; experiment: SPR, BIACORE 3000; antibody captured by anti-human Fc, antigen 0-25 nM as analyte
[3] = target: T2, recombinant human IL13 (human, UniProt P35225 partial chain, limits assumed); experiment: SPR, Biacore 3000; CODV-Ig captured by anti-human Fc, antigen as analyte
T2 construct: also called Antigen2

[4] = target: T1, recombinant human IL4; experiment: binding assay not named (Example 1)

T2 sequence (P35225 35-146 limits assumed): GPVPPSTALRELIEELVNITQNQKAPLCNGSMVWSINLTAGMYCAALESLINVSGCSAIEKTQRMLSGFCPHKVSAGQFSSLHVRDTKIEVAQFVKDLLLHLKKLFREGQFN

Binder | Kd [1] [pM] | Kd [3] [pM] | binding result [4] | also measured
B1 | 9 | – | – | Kd [2]: 11.1 pM; koff [2]: 0.00033 s⁻¹; kon [2]: 2.97e+07 M⁻¹ s⁻¹
B2 | 5 | 74 | – | –
B3 | 6 | 70 | – | –
B4 | – | – | – | Kd [2]: 9.14 pM; koff [2]: 0.000289 s⁻¹; kon [2]: 3.16e+07 M⁻¹ s⁻¹
B5 | 5 | 50 | – | –
B6 | – | – | no binding | –
B7 | – | – | no binding | –
B8 | – | – | no binding | –
B9 | – | – | no binding | –
